We go through 47 molecules from PubChem BioAssay AID1508642 (National Center for Advancing Translational Sciences (NCATS), 2021).

Molecules are shown by their SMILES. Screen size: about 43,000 compounds; about 200 (0.47%) were called active. Roughly 12% stayed inconclusive and do not appear here. The call rests on the fitted dose curve; in most records, active means well fitted cell-killing curve with a large enough effect; inconclusive means small, poorly fitted or top-dose-only effect, or effect the other way; inactive means flat fitted curve, though single readings scatter. This is one part of the list.
On the % scale 0 is the no-effect control and ±100 the full control effect.

The nature of the assay: Cell viability qHTS assay in S16 Pmp22-F2sN cells. Further: nearly all actives have a fitted effect of over 65% in size. Conditions: S16 Pmp22-F2sN Schwann cells viability, CellTiter-Glo, 24 h; series mostly up to 57.5 µM; activity change, negative = cytotoxicity: at the top concentration. An outline of the steps:
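Viability was measured by CellTiter-Glo luminescence (15 min, room temperature). This followed 24 h at 37 °C of compound exposure (23 nL pin transfer) in S16 Pmp22-F2sN Schwann cells, 500-1,000 per well.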
Take `CCOC(=O)Cn1c(=O)oc2cc(S(=O)(=O)N3CCCC(C)C3)ccc21` (configuration not stated): the “activity change, negative = cytotoxicity” value was inactive: -2.79%. As for `CCCCn1cc(S(=O)(=O)c2ccc(Cl)cc2)c(=O)c2cc(F)c(N3CCCC(C)C3)cc21` (configuration not stated), the figure is inactive: -14.8%; as for `CCOC(=O)c1cc(S(=O)(=O)N2CCN(c3cccc(OC)c3)CC2)[nH]n1`, inactive: 1.34%. Regarding `CCc1cnc2c(c1SCC(=O)Nc1ccc(OC)c(OC)c1)c(=O)n(C)c(=O)n2C`, the “activity change, negative = cytotoxicity” value is inactive: 5.11%. In the case of `CCCCOC(=O)Cn1nnc2sc(-c3ccccc3)cc2c1=O`, the “activity change, negative = cytotoxicity” value was inactive: 7.62%.

For `COc1ccc(CCNC(=O)CSc2cn(CCNC(=O)c3ccccc3F)c3ccccc23)cc1OC`, the “activity change, negative = cytotoxicity” value is inactive: -0.66%. Consider `CN1CCN(C(=O)C(=O)Nc2c3c(nn2-c2cccc(Cl)c2)CSC3)CC1`, for which the “activity change, negative = cytotoxicity” value is inactive: 13.7%. As for `O=C(CCCCn1c(=O)c2ccccc2n(CC(=O)Nc2ccc(F)cc2F)c1=O)NCc1ccccc1Cl`, the figure is inactive: 18.1%; as for `O=C(CSc1ncc(-c2ccccc2)[nH]1)Nc1ccc(F)cc1F`, inactive: 3.6%; as for `COc1ccc(Nc2cc(C(=O)NCc3cccs3)c3ccccc3n2)cc1`, inactive: 17.9%. `CCOC(=O)c1c(C)[nH]c(C)c1S(=O)(=O)N1CCCC(C(=O)NCc2ccc(C)cc2)C1` (configuration not stated): the “activity change, negative = cytotoxicity” value is inactive: -4.54%. In the case of `Cc1ccc(Cn2c(=O)n(CCc3ccccc3)c(=O)c3c(C)c(C)sc32)cc1` it was inactive: -16.6%. Consider `CCc1ccccc1N1C(=O)N(CC(=O)c2ccc(Cl)cc2)c2ccccc2S1(=O)=O`, for which the “activity change, negative = cytotoxicity” value is inactive: 1.26%. Consider `Cc1cc(C)c(NC(=O)c2cc(S(=O)(=O)NCCC3=CCCCC3)ccc2F)c(C)c1`, for which the “activity change, negative = cytotoxicity” value is inactive: -2.42%.

Consider `Cc1ccc(-n2ncc(C(=O)NCCN3CCCC3)c2C2CCN(C(=O)OC(C)(C)C)CC2)cc1`, for which the “activity change, negative = cytotoxicity” value was inactive: -2.64%. Consider `Cc1cc(C)n(-c2nc3cc(Cl)ccc3nc2Nc2ccc(C)c(F)c2)n1`, for which the “activity change, negative = cytotoxicity” value was inactive: 3.2%. Regarding `Cc1ccc(NC(=O)Cn2nnc3sc4c(c3c2=O)CCC(C)C4)cc1` (configuration not stated), the “activity change, negative = cytotoxicity” value was inactive: 10.1%. For `COc1ccc(Cn2c(CCC(=O)Nc3ccc(C)cc3)nc3cccnc32)cc1`, the “activity change, negative = cytotoxicity” value was inactive: 1.67%. Consider `CCOc1ccccc1NC(=O)N1c2ccccc2Sc2ccccc21`, for which the “activity change, negative = cytotoxicity” value was inactive: -14.9%. As to `CCOc1ccc(N(C)S(=O)(=O)c2c(C(=O)N3CCC(C)CC3)c(C)n(C)c2C)cc1`, the “activity change, negative = cytotoxicity” value was inactive: 4%. Take `Cc1cccc(-n2ncc(C(=O)N3CCN(Cc4ccccc4)CC3)c2C2CCN(C(=O)OC(C)(C)C)CC2)c1`: the “activity change, negative = cytotoxicity” value is inactive: -5.97%. As to `CCc1ccc(S(=O)(=O)c2nnn3c2nc(Nc2ccc(C)c(Cl)c2)c2sccc23)cc1`, the “activity change, negative = cytotoxicity” value was inactive: -1.71%. `COCCCn1c(=N)c(C(=O)NCc2ccco2)cc2c(=O)n3cccc(C)c3nc21`: the “activity change, negative = cytotoxicity” value was inactive: 5.66%. For `CCOC(=O)c1c(NC(=O)COc2ccc(Br)cc2)sc2c1CCCC2`, the “activity change, negative = cytotoxicity” value was inactive: 2.91%.

Consider `CC(=O)Nc1cc(C(=O)NCc2ccc(C)cc2)ccc1S(=O)(=O)c1ccc(Cl)cc1`, for which the “activity change, negative = cytotoxicity” value is inactive: -3.03%.

Consider `CCOC(=O)CN1C(C(=O)c2ccccc2)=C(OC(=O)C(C)(C)C)c2ccccc2S1(=O)=O`, for which the “activity change, negative = cytotoxicity” value is inactive: 6.59%.

`CSc1cccc(NC(=O)Cn2c(=O)n(Cc3ccccc3)c(=O)c3sc4ccccc4c32)c1`: the “activity change, negative = cytotoxicity” value is inactive: -2.23%. `CCn1c(SCc2cccc(Br)c2)nnc1-c1nonc1NC(C)=O`: the “activity change, negative = cytotoxicity” value was inactive: -16.8%. In the case of `CC(C)CNC(=O)C(=O)Nc1c2c(nn1-c1ccccc1)CS(=O)(=O)C2` it was inactive: -15%.

Take `Cc1ccc(C(=O)N2CCc3cc(CNC(=O)c4ccc(Br)cc4)ccc32)cc1`: the “activity change, negative = cytotoxicity” value was inactive: -13.1%. For `Cc1cccc(NC(=O)c2ccc3c(O)c(S(=O)(=O)c4ccccc4)c(=O)[nH]c3c2)c1C`, the “activity change, negative = cytotoxicity” value was inactive: 1.35%. As for `O=C(Nc1ccc2nc(SCC(=O)N3CCc4ccccc43)sc2c1)c1cccc(F)c1`, the “activity change, negative = cytotoxicity” value is inactive: -3.15%.

For `Cc1ccccc1-c1nc(CS(=O)(=O)CC(=O)NCCc2ccccc2)c(C)o1`, the “activity change, negative = cytotoxicity” value is inactive: 21.9%. Consider `COc1ccc(S(=O)(=O)N2CCN(Cc3ccc4c(c3)OCO4)CC2)cc1C`, for which the “activity change, negative = cytotoxicity” value was inactive: 3.2%. `CCOC(=O)c1cnc2c(Cl)cc(Cl)cc2c1Nc1cc(C(=O)O)ccc1C`: the “activity change, negative = cytotoxicity” value is inactive: -3.4%. In the case of `Cc1cccc(C)c1NC(=O)C(=O)NCC(c1ccc2c(c1)OCO2)N1CCOCC1` (configuration not stated), the “activity change, negative = cytotoxicity” value was inactive: -1.61%. Consider `COCCNC(=O)CCn1c(=O)c2cc(OC)c(OC)cc2n(CC(=O)Nc2ccccc2C)c1=O`, for which the “activity change, negative = cytotoxicity” value was inactive: -13.5%.

For `CS(=O)(=O)NCC(c1ccco1)N1CCN(c2ccc(F)cc2)CC1` (configuration not stated), the “activity change, negative = cytotoxicity” value was inactive: 0.714%. Regarding `O=S(=O)(c1ccc(-c2cc(C(F)(F)F)on2)s1)N1CCN(c2ccccc2)CC1`, the “activity change, negative = cytotoxicity” value is inactive: 2.51%. In the case of `Cc1cc(=O)[nH]c2nnc(SCc3c(F)cccc3Cl)n12`, the “activity change, negative = cytotoxicity” value was inactive: -4.67%. Take `Cc1c(Cl)cccc1NC(=O)CNS(=O)(=O)c1cccs1`: the “activity change, negative = cytotoxicity” value was inactive: -5.23%. Take `Cc1nc2sccn2c(=O)c1S(=O)(=O)Nc1ccc(N2CCOCC2)cc1`: the “activity change, negative = cytotoxicity” value is inactive: -5.22%.

For `Cc1ccc(C2CCN(C(=O)Nc3ccc(Cl)cc3)C2)cc1` (configuration not stated), the “activity change, negative = cytotoxicity” value is inactive: -25.5%. Regarding `COc1ccc(N(CC(C)C)S(=O)(=O)c2nnc(NC(=O)c3cccs3)s2)cc1`, the “activity change, negative = cytotoxicity” value is inactive: 2.69%. `CSc1cccc(NC(=O)C2CCN(S(=O)(=O)c3ccc4c(c3)CCCN4C(=O)C3CCC3)CC2)c1`: the “activity change, negative = cytotoxicity” value was inactive: -29.9%. Take `CCOc1ccc2c(c1)sc1nc(=O)n(-c3ccc(Cl)c(Cl)c3)c(=O)n12`: the “activity change, negative = cytotoxicity” value is inactive: 11.6%. As for `Cc1ccc(OCc2nc(-c3ccc(C(=O)N4CCN(c5cccc(C(F)(F)F)c5)CC4)cc3)oc2C)cc1`, the figure is inactive: -11.8%.
